Source: the supplement of paper PMC9446081
The campaign covered roughly 39,000 compounds. About 220 (0.56%) showed activity. Some of the results follow.

System: Escherichia coli K-12 BW25113
Assay: relative growth (OD600 normalised to plate interquartile mean) (fraction); higher = less growth inhibition, active = 0.2 or less
Details: 50 µM; LB; incubation time: overnight (16-24 h)
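Note: static incubation at 37 °C against the wild-type strain, values averaged over two biological replicates.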

Compound	relative growth
C[C@@H]1CCCCO[C@H](CN(C)Cc2ccc(C(F)(F)F)cc2)[C@H](C)CN([C@@H](C)CO)C(=O)c2cc(NC(=O)NC3CCCCC3)ccc2O1	inactive: 0.971
C[C@@H]1CN([C@@H](C)CO)C(=O)c2cccc(NC(=O)c3ccc(-c4nccs4)cc3)c2O[C@@H]1CN(C)S(=O)(=O)c1ccc(Cl)cc1	inactive: 1.02
O=C(NC[C@H]1CCCO1)c1ccc[nH]1	inactive: 1.04
C[C@@H]1CN([C@@H](C)CO)C(=O)c2cc(NC(=O)Nc3ccc(F)cc3)ccc2O[C@@H]1CN(C)Cc1ccc(C(=O)Nc2ccccc2N)cc1	inactive: 1.01
CC(=O)c1ccc(S(=O)(=O)N2[C@@H]3CC[C@@H](C3)[C@H]2c2nc3cccc(OCc4ccc(F)cc4)c3[nH]2)cc1	inactive: 0.99
CC(C)N1C[C@H](C)[C@@H](CN(C)Cc2ccc(Oc3ccccc3)cc2)Oc2c(NC(=O)c3ccccn3)cccc2C1=O	inactive: 1.03
C[C@@H]1CN([C@@H](C)CO)S(=O)(=O)c2ccc(C3=CCCCC3)cc2O[C@@H]1CN(C)Cc1cncnc1	inactive: 1
C[C@@H]1CN([C@H](C)CO)C(=O)Cc2cc(NC(=O)Nc3ccc(F)cc3)ccc2O[C@H]1CN(C)CC1CCCCC1	inactive: 1.06
C[C@@H]1CN([C@@H](C)CO)C(=O)c2cccc(NS(=O)(=O)c3ccccc3)c2O[C@H]1CN(C)S(=O)(=O)c1ccccc1	inactive: 1.01
C[C@@H]1CN([C@H](C)CO)C(=O)Cc2cc(NC(=O)Nc3ccc4c(c3)OCO4)ccc2O[C@@H]1CN(C)Cc1ccc(Cl)c(Cl)c1	inactive: 1
C=CC[C@@H](CC(=O)N[C@H](CO)Cc1ccccc1)C(=O)N[C@H](COC(=O)[C@@H](CC=C)Cc1ccc(F)cc1)Cc1c[nH]c2ccccc12	inactive: 1.02
O=C([O-])C(O)C(O)C(O)C(O)C(O)CO.O=C([O-])C(O)C(O)C(O)C(O)C(O)CO.[Ca+2] (stereo unspecified)	inactive: 1.13
CC(C)NC(=O)N(C)C[C@@H]1OCCCC[C@H](C)Oc2ccc(NC(=O)Nc3ccccc3)cc2C(=O)N([C@H](C)CO)C[C@@H]1C	inactive: 0.995
C[C@@H]1CN([C@@H](C)CO)C(=O)c2cc(NC(=O)Cc3ccccc3)ccc2O[C@H]1CN(C)S(=O)(=O)c1cn(C)cn1	inactive: 0.98
C[C@@H]1CN([C@@H](C)CO)C(=O)c2cc(NC(=O)CCCN(C)C)ccc2O[C@H]1CN(C)C(=O)NC1CCCCC1	inactive: 1.01
C[C@@H]1CN([C@H](C)CO)C(=O)Cc2cc(NC(=O)CCCCCC(=O)Nc3ccccc3N)ccc2O[C@@H]1CN(C)S(=O)(=O)c1cn(C)cn1	inactive: 1
C[C@H]1CN([C@@H](C)CO)C(=O)c2cccc(NS(=O)(=O)c3cn(C)cn3)c2O[C@@H]1CN(C)C(=O)Nc1ccc(F)cc1	inactive: 0.988
CC(C)NC(=O)N(C)C[C@@H]1Oc2ccc(NC(=O)Nc3ccc4c(c3)OCO4)cc2C(=O)N([C@@H](C)CO)C[C@H]1C	inactive: 0.879

Compound	relative growth
C[C@@H]1CCCCO[C@H](CN(C)Cc2ccc(Cl)c(Cl)c2)[C@@H](C)CN([C@@H](C)CO)C(=O)c2cc(NC(=O)Nc3ccc4c(c3)OCO4)ccc2O1	inactive: 0.985
COc1cccc(NC(=O)N[C@@H]2CC[C@@H](CC(=O)N3CCN(C)CC3)O[C@H]2CO)c1	inactive: 1.02
N=C(N)NCCC[C@@H]1NC(=O)[C@@H](N)CSSC[C@@H](C(=O)O)NC(=O)[C@H](CC(=O)O)NC(=O)[C@@H]2CCCN2C(=O)CNC(=O)[C@H](CCCCN)NC(=O)[C@H](CC(=O)O)NC(=O)CNC1=O	inactive: 1.02
O=C(CN1CCOCC1)N[C@H]1CC[C@@H](CCn2cc(C3CC3)nn2)O[C@@H]1CO	inactive: 0.997
COc1ccc(S(=O)(=O)Nc2ccc3c(c2)C(=O)N([C@@H](C)CO)C[C@@H](C)[C@H](CN(C)C(=O)NC2CCCCC2)OCCCC[C@H](C)O3)cc1	inactive: 1.01
C[C@@H]1CN([C@H](C)CO)C(=O)Cc2cc(NC(=O)Nc3cccc4ccccc34)ccc2O[C@H]1CN(C)S(=O)(=O)c1ccc(Cl)cc1	inactive: 1.04
CCCCC[C@@H](C[C@@H](CC(=O)O)O[C@H]1O[C@@H](CO)[C@@H](O[C@H]2O[C@@H](CO)[C@@H](O)[C@@H](O)[C@@H]2O)[C@@H](O)[C@@H]1O)OC(=O)C[C@H](O)C[C@H](CCCCC)O[C@H]1O[C@@H](CO)[C@@H](O)[C@@H](O)[C@@H]1O	inactive: 1.01
COc1ccc(S(=O)(=O)N(C)C[C@H]2OCCCC[C@@H](C)Oc3ccc(NC(=O)Nc4ccccc4)cc3C(=O)N([C@@H](C)CO)C[C@@H]2C)cc1	inactive: 0.88
COc1ccc(NC(=O)N(C)C[C@H]2Oc3c(NC(=O)c4cc(C)nn4C)cccc3C(=O)N([C@H](C)CO)C[C@H]2C)cc1	inactive: 0.983
C[C@@H]1CN([C@H](C)CO)C(=O)c2cc(NC(=O)C3CC3)ccc2O[C@H]1CN(C)Cc1ccc(-c2ccccc2)cc1	inactive: 1.03
CCS(=O)(=O)N1CCC(C(=O)N(C)C)CC1	inactive: 1.01
O=C1CNC(=O)N1CC1CCNCC1	inactive: 1.03
CN[C@H]1CCS(=O)(=O)C1	inactive: 0.988
C[C@@H]1CN([C@H](C)CO)C(=O)c2cccc(NC(=O)c3ccc(-c4nccs4)cc3)c2O[C@H]1CN(C)C(=O)Nc1ccc(F)cc1	inactive: 1
C[C@H](CO)N1C[C@H](C)[C@@H](CN(C)Cc2ccc(Cl)c(Cl)c2)OCCCC[C@H](C)Oc2ccc(NC(=O)CCC(F)(F)F)cc2C1=O	inactive: 0.993
C[C@@H]1CN([C@@H](C)CO)C(=O)Cc2cc(NC(=O)Cc3ccccc3)ccc2O[C@@H]1CN(C)Cc1ccc(-c2ccccc2)cc1	inactive: 1.05
COc1ccc(S(=O)(=O)Nc2ccc3c(c2)C(=O)N([C@H](C)CO)C[C@@H](C)[C@@H](CN(C)S(=O)(=O)c2cn(C)cn2)O3)cc1	inactive: 1.02
CC(C)NC(=O)N(C)C[C@H]1OCCCC[C@@H](C)Oc2ccc(NS(=O)(=O)c3cn(C)cn3)cc2C(=O)N([C@@H](C)CO)C[C@@H]1C	inactive: 0.981
